Experimental data reported in the RNAGym collection of RNA variant scans (doi:10.1093/nar/gkz1192).
The source gives no read counts; variants with many changes may rest on few reads.

B1: CPEB3 Ribozyme (parent)
chain: UAACAGGGGGCCACAGCAGAAGCGUUCACGUCGCAGCCCCUGUCAGAUUCUGGUGAAUCUGCGAAUUCUGCUGUAUAUCUC

Variants of: B1
Experiment: self-cleavage, relative activity (ratio to wild type); higher = more cleavage; in vitro, sequencing
Summary of the method: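 Relative activity compares each variant's cleaved/total read fraction with that of the unmutated ribozyme. To get these fractions, barcoded CPEB3 ribozyme libraries from rounds of error-prone PCR were transcribed with T7 RNA polymerase for 5 hours at 37°C and then given 15 min of DNase I treatment before EDTA was added. The RNAs were reverse transcribed with template switching and sequenced on Illumina, and DNA sequencing linked barcodes to variants. A minimum of 5 reads applied, and three batches were averaged.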

Variant | self-cleavage
UAACAGGGGGCCACAGCGGAAGCGCUCACGUCGCAGCUCCUGUCAGAUUCCGGUGGAUCUGCGAAUUCUGCUGUAUAUCUC | 0.08
UAACAGGGGGCCACAGCGGAAGCGUUCACGCCGCAGCCCCUGUCAGAUUCUGGUGAAUCUGCGAAGUCCGCUGUAUAUCUC | 0.12
UAACAGGGGGCCACAGCGGAAGCGUUCACGUCGCAGCCCCAGUCAGAUUCUGGUGAAUCCGCGAAUUCUGCUGUAUAUCUC | 0.07
UAACAGGGGGCCACAGCGGAAGCGUUCACGUCGCAGCCCCAGUCAGAUUCUGGUGAAUCCGCGAAUUCUGCUGUAAGUCUC | 0.08
UAACAGGGGGCCACAGCGGAAGCGUUCACGACGCAGCCCCUGUCAGGUUCUGGUGAAUCUGCGAGUUCUGCUGUAUAUCUC | 0.11
UAACAGGGGGCCACAGCGGAAGCGUCCACGUCGCAGCCCCUGCCAGAUUCUGGUGAAUCUGCGAAUCCUGCUGUAUAUCUC | 0.12
UAACAGGGGGCCACAGCGGAAGCGUUCACGACGCAGCCCCUGCCAGAUUCUGGUGAAUCCGCGAAUUCUGCUGUAUAUCUC | 0.03
UAACAGGGGGCCACAGCGGAAGCGUUCACGUCGCAGCCCCUGUCAGAUUCAGGUGAAUCUGCGAAUUCUGCUGCAUAUCUC | 0.93
UAACAGGGGGCCACAGCGGAAGCGUCCACGUCGCAGCCCCUGUCAGUAUCUGGAGAAUCUGCGAAUUCUGCUGUAUAUCUC | 0.06
UAACAGGGGGCCACAGCGGAAGCGUUCACGUCGCAGCCCCAGUCAGAUUCUGGUGAAUCUGCGAAUUCAGCUGUAUAUCUC | 0.14
UAACAGGGGGCCACAGCGGAAGCGUUCACGUCGCAGCCCCAGUCAGAUUCUGGUGAAUCUGCGAAUUCCGCUGUAUAUCUC | 0.25
UAACAGGGGGCCACAGCGGAAGCGUUCACGCCGCAGCCCCUGUCAGAUUCUGGAGAAACUGCGAAUUCUGCCGUAUAUCUC | 0.07
UAACAGGGGGCCACAGCGGAAGCGUUCACGUCGCAGCCCCAGUCAGAUCCUGGUGGAUCUGCGAAUUCAGCCGUAUAUCUC | 0.07
UAACAGGGGGCCACAGCGGAAGCGCUCACGUCGCAGCCCCUGUCAGAUUCUGGUGAAUCUACGAAUUCUGCUGUAUAUCUC | 0.17
UAACAGGGGGCCACAGCGGAAGCGUUCACGCCGCAGCACCCGUCAGAUUCUGGUGAAUCUGCGAAUUCUGCUGUAUACCUC | 0.07
UAACAGGGGGCCACAGCGGAAGCGUACACGUCGCAGCCCCUGUCAGAUUCUGGUGAACCUGCGAAUUCUGCUGUAUAUCUC | 0.33
UAACAGGGGGCCACAGCGGAAGCGUUCACGUCGCAGCCCCGGUCCGAUUCUGGUGUAUCUGCGAAUUCUGCUGUAUAUCUC | 0.14

Variant | self-cleavage
UAACAGGGGGCCACAGCGGAAGCGUUCACGUCGCAGCCCCCGUCAGAUUCUGGUGAAUCUGCGAGUUCUGCUGUAUAUCUC | 0.36
UAACAGGGGGCCACAGCGGAAGCGUUCACGUCGCAGCCCCUGUCAGAUCCUGGUGAACCUGCGAAUUCUGCUGUGAAUCUC | 0.1
UAACAGGGGGCCACAGCGGAAGCGUCAACGUCGCAGCCCCUGUCAGGUUCUGGUGGAUCUGCGAAUUCUGCUGUAUAUCUC | 0.17
UAACAGGGGGCCACAGCGGAAGCGUUCACGUCGCAGCCCCGGUCAGAUUCUGGUGAGUCUGCGAAUUCUGCUGUAUAUCUC | 0.08
UAACAGGGGGCCACAGCGGAAGCGUUCACGCAGCAGCCCCUGUCAGAUUCUGGUGAAUCUGCGGAUUCUGCUGUAUAUCUC | 0.19
UAACAGGGGGCCACAGCGGAAGCGUACACGUCGCAGCCCCUGUCAGAUUCUGGUGAAUCUGCGAAUACAGCUGUAUAUCUC | 0.15
UAACAGGGGGCCACAGCGGAAGCGUUCACGUCGCAGCCCCUGUCAGACUCUGGUGAAUCUGCGAACUCUGCGGUAUAUCUC | 0.15
UAACAGGGGGCCACAGCGGAAGCGUUCACGUCGCAGCCCCUGUCAGAUCCUGGUGAAUCUGCGAAUUCCGCUGUAUACCUC | 0.58
UAACAGGGGGCCACAGCGGAAGCGUUCACGACGCAGCCCCUGUCAGAUUCCGGUGAAUCUGCGAAUUCUGCUGUAUAUCUC | 0.22
UAACAGGGGGCCACAGCGGAAGCGUUCACGUCGCAGCCCCUGUCAGAUUCCGGUGAAUCUGCGGAUUCUGCUGUAUAUCUC | 0.34
UAACAGGGGGCCACAGCGGAAGCGUUCACGUCGCAGCCCCCGUCAGAUUCUGGUAAAUCUGCGAAUUCUGCUGUAUAUCUC | 0.15
UAACAGGGGGCCACAGCGGAAGCGUUCACGUCGCAGCCCCAGUCAGAUUCUGGUGAAUCAGCGGAUUCUGCUGGAUAUCUC | 0.17
UAACAGGGGGCCACAGCGGAAGCGUUCACGUCGCAGCCCCAGUCAGGUUCUGGUGAAUCUGCGAAUUCUGCUGUAUAUCUC | 0.23
UAACAGGGGGCCACAGCGGAAGCGUUCACGUCGCAGCCCCUGCCAGAUUCUGGUGAAUCUGCGUAUCCUGCUGUAUAUCUC | 0.08
UAACAGGGGGCCACAGCGGAAGCGUUCACGUCGCAGCCCCUGUCAGACUCUGGUGAAUCUGCGAAUUCUGCUGUUUAUCUC | 0.32
UAACAGGGGGCCACAGCGGAAGCGUUCACGUCGCAGCCCCCGUCAGAUUCUGGUGAAUCUGCGAAUUCUGCUGUAUAUCAC | 0.91
UAACAGGGGGCCACAGCGGAAGCGUUCACGUCGCAGCCCCAGUCAGACUCUGGUGAAUCCGCGAAUUCUGCUGUAUAUCAC | 0.2
